Laboratory results reported in the RNAGym collection of RNA variant scans (doi:10.7554/elife.90254).
The source gives no read counts; variants with many changes may rest on few reads.

B1: LINE1-full (parent)
chain: UACGUAGGUGGUUUUCCCCUGAUAGUGCUAAGGGGGCCUGGAAGUUUGGACUGGGCAGAGCUCAACACAGCGUGGCAAAGUGGCUGUGGCUAGACUGCCUCUCUGGAUUCCUCGUCACUCAGCAGGGCAUCUCUGAGAGAAAUGCC

Variants of: B1
Test: self-cleavage, relative activity (ratio to wild type); higher = more cleavage; in vitro, sequencing; the parent is a self-cleaving ribozyme

Row | Variant | self-cleavage
1 | U13C U23C U87C C101A | 0
2 | U13C U26A A138G | 2.65
3 | U13C U26A A138G A141G | 0.71
4 | U13C U26A G127A | 0.48
5 | U13C U26A U108A U112C | 0.35
6 | U13C U26C A30U | 1.02
7 | U13C U26C A31G U73A U108C G144A | 0.57
8 | U13C U26C A64U U104A U112C A140G | 0.11
9 | U13C U26C A65G | 0
10 | U13C U26C A77G | 1.67
11 | U13C U26C C51U U85C | 0
12 | U13C U26C G35U G54A A57G A79G U134A | 0.53
13 | U13C U26C G58U | 0.1
14 | U13C U26C U87A G106U U115A | 0.09
15 | U13C U26C U100C | 2.47
16 | U13C U29A A50G | 0.68
17 | U13C U29A U46C U52A | 1.53
18 | U13C U29C A59U G74A U108A | 0.46
19 | U13C U29C A67U A94U C120U | 0.09
20 | U13C U29C A79U | 2.45
21 | U13C U29C C90U | 0.12
22 | U13C U29C U62C | 0.3
23 | U13C U29C U112C | 0.79
24 | U13C U39A C120A | 2.21

Row | Variant | self-cleavage
25 | U13C U39A U45C U87C U134A A136G | 0
26 | U13C U39C A92U C128U | 0.48
27 | U13C U39C U100C U119C | 0
28 | U13C U39G A59G | 0.34
29 | U13C U45A G127A U143C | 0.8
30 | U13C U45C A117G A142G | 1.53
31 | U13C U45C G49U | 0.84
32 | U13C U45C U47A A50G | 1.02
33 | U13C U45C U62A | 0.05
34 | U13C U45G G125A | 1
35 | U13C U46A A94G | 0.38
36 | U13C U46A A138G | 1.93
37 | U13C U46A U100A | 1.17
38 | U13C U46C A50G U104C | 1.31
39 | U13C U46C A69G G72A A78U | 0.91
40 | U13C U46C A77U | 1.02
41 | U13C U46C A77U A78G A140G | 1.44
42 | U13C U46C A78G | 1.11
43 | U13C U46C A79G C84U | 0.22
44 | U13C U46C G54A U91C C98U U143C | 0.14
45 | U13C U46C G60A U62A | 0.1
46 | U13C U46C U112C | 1.72
47 | U13C U46C U112C U143G | 1.37
48 | U13C U47A A59U A69U | 0.21

Row | Variant | self-cleavage
49 | U13C U47A A65G A77G A107G | 0.54
50 | U13C U47A U81C U112C | 0.55
51 | U13C U47C C145U | 1.31
52 | U13C U47C G72A U73A A79U A92G | 0.28
53 | U13C U47C U73G | 2.07
54 | U13C U47C U104C A136G | 0.92
55 | U13C U47C U109C A142G | 0.66
56 | U13C U52A A77U A138G U143A | 1.7
57 | U13C U52A G53A A78U U102C U143C | 1.76
58 | U13C U52A U87C A138G | 0.32
59 | U13C U52C A59G | 0.25
60 | U13C U52C A69U | 0.31
61 | U13C U52C A92G A141G | 0.38
62 | U13C U52C A94G | 0.51
63 | U13C U52C A136U | 1.67
64 | U13C U52C U96A | 0.06
65 | U13C U52C U115A A138G | 1.7
66 | U13C U62A A124G | 0.24
67 | U13C U62C U108C G122U A142G | 0.05
68 | U13C U62G U112A A121G | 0
69 | U13C U73C A78G G88U | 0.07
70 | U13C U73C A142G | 0.41
71 | U13C U73C U143A | 1.91
72 | U13C U73G A136G | 2.15

Row | Variant | self-cleavage
73 | U13C U81A U100C | 2.01
74 | U13C U81A U143C | 1.21
75 | U13C U81C U119C A124G | 1.31
76 | U13C U85A U96A U119C | 0.25
77 | U13C U85C A140G | 0.09
78 | U13C U87A A107U A136G | 0.56
79 | U13C U87A U130C | 0.22
80 | U13C U87C A121C | 0.2
81 | U13C U87C C99U | 0.17
82 | U13C U87C U115G | 0.18
83 | U13C U87C U134G A138C C145U | 0
84 | U13C U91A U102C | 0.35
85 | U13C U96A U102C U132C | 0
86 | U13C U96A U134C A142G | 0
87 | U13C U96C A124G | 0
88 | U13C U96C U108C A121C | 0
89 | U13C U100A A138G | 0.62
90 | U13C U100C A141G | 1.22
91 | U13C U100C U119C | 2.17
92 | U13C U100C U132A | 1.94
93 | U13C U102A U108C A121U | 1.23
94 | U13C U104A U130C A142G | 1.48
95 | U13C U104C A121U | 0
96 | U13C U104C A136U | 1.75

Row | Variant | self-cleavage
97 | U13C U104G A121U | 0.66
98 | U13C U108A U115A A142G | 1.41
99 | U13C U115C U143A | 0.92
100 | U13C U119A A124U A138G | 2.08
101 | U13C U134C A141G | 2.17
102 | U13G A77U U115A | 1.04
103 | U13G A78G G89C | 0.12
104 | U13G A129G U130C | 1.23
105 | U13G C38U G55U A64G | 0.22
106 | U13G G40A A142U | 0.58
107 | U13G U20C A43G A59U | 1.11
108 | U13G U52A A77G U102A | 0.75
109 | U13G U73C A94U | 0.44
110 | U13G U104C G126A | 1.23
111 | U14A A24G G75A A92U C133U | 0.45
112 | U14A A30G G35A | 0.67
113 | U14A A31U C113U A129U | 0.94
114 | U14A A43G U73A U91C | 0
115 | U14A A43U U96A | 0.05
116 | U14A A50G A121G | 0.63
117 | U14A A59G A77U | 0.09
118 | U14A A64C G126U A129G | 0.4
119 | U14A A64G A67G A121U | 0
120 | U14A A64G U100C U134G | 0.33

Row | Variant | self-cleavage
121 | U14A A65G A77G A78U U85A G89A | 0.07
122 | U14A A67G A140U | 0.39
123 | U14A A69G A94G | 0
124 | U14A A78G U91C | 0.08
125 | U14A A79G A117U | 0.62
126 | U14A A79G C98G | 0.04
127 | U14A A92U U104A | 0.63
128 | U14A A94G A138G | 0.16
129 | U14A A107G U119A | 1.21
130 | U14A A121G A124U | 1.41
131 | U14A C19U U47C | 0
132 | U14A C28A G144U | 0.72
133 | U14A C28U A50G A141U | 0.95
134 | U14A C90U A138G | 0.03
135 | U14A G21A A129U C145U | 1.64
136 | U14A G21U A79G U85A A121G A140G | 0.17
137 | U14A G27A A65G | 0.02
138 | U14A G35A U47A U100C | 0.62
139 | U14A G40A A65C A121U | 0.03
140 | U14A G41C C51U | 1.91
141 | U14A G44A U112A | 0.75
142 | U14A G53A A65G U108C | 0
143 | U14A U15C A31U U143A | 1.28
144 | U14A U15C A77U A94G A121U | 0.14

Row | Variant | self-cleavage
145 | U14A U15C A117G | 1.56
146 | U14A U20A A78G C103A | 0.6
147 | U14A U20C A77U A79G U108C | 1.02
148 | U14A U20C G75U A77G C131U | 0.81
149 | U14A U23C C90U A142G G144A | 0.07
150 | U14A U23C U96C A129G U132C | 0.32
151 | U14A U23C U102C | 0.39
152 | U14A U26A U45C G86A U104A A129G U130C A138G | 0.06
153 | U14A U29C A43G | 1.71
154 | U14A U29C A77U | 0.88
155 | U14A U29C U85A A124G | 0.22
156 | U14A U39C U85A G105U | 0.03
157 | U14A U46C A77U A121U | 1.21
158 | U14A U46C C68U U87C | 0
159 | U14A U47A A67U A140G | 0.06
160 | U14A U47C A79U | 1.26
161 | U14A U47G U87C U104C A138G | 0
162 | U14A U52A A94G U130C U132C | 0.39
163 | U14A U52A G89C A94G C128G | 0.06
164 | U14A U62A A69G | 0.11
165 | U14A U62C A141U | 0.24
166 | U14A U62C U81A A94G | 0.26
167 | U14A U62C U87A U115A A138G A142G | 1.03
